Laboratory results from PMC5501830.
These are yes or no findings as the source states them, for the method shown. Binding seen in cells or lysates may run through a third protein. Some results given as binding are weak or reduced against the parent protein; the word gives no strength.

Protein sequences, listed by entry. Tags and fused reporters are not part of them. Lines headed by an entry give the natural chain unless they say otherwise; changes in a name come on top.
UniProt P25705: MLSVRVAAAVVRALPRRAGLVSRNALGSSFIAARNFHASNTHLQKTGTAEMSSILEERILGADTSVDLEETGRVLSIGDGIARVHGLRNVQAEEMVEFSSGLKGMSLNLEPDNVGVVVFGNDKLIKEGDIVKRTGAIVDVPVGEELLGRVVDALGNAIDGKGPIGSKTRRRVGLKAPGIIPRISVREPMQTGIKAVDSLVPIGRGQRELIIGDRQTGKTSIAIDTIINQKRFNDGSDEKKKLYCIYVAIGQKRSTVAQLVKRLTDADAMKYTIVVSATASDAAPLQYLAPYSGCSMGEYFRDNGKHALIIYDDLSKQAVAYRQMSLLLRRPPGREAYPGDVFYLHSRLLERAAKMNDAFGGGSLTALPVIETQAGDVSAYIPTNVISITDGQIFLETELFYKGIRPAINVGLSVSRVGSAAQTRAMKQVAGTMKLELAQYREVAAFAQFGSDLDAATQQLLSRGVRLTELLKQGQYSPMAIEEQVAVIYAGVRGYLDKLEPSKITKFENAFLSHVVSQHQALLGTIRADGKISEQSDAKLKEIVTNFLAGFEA
UniProt Q9BXW9: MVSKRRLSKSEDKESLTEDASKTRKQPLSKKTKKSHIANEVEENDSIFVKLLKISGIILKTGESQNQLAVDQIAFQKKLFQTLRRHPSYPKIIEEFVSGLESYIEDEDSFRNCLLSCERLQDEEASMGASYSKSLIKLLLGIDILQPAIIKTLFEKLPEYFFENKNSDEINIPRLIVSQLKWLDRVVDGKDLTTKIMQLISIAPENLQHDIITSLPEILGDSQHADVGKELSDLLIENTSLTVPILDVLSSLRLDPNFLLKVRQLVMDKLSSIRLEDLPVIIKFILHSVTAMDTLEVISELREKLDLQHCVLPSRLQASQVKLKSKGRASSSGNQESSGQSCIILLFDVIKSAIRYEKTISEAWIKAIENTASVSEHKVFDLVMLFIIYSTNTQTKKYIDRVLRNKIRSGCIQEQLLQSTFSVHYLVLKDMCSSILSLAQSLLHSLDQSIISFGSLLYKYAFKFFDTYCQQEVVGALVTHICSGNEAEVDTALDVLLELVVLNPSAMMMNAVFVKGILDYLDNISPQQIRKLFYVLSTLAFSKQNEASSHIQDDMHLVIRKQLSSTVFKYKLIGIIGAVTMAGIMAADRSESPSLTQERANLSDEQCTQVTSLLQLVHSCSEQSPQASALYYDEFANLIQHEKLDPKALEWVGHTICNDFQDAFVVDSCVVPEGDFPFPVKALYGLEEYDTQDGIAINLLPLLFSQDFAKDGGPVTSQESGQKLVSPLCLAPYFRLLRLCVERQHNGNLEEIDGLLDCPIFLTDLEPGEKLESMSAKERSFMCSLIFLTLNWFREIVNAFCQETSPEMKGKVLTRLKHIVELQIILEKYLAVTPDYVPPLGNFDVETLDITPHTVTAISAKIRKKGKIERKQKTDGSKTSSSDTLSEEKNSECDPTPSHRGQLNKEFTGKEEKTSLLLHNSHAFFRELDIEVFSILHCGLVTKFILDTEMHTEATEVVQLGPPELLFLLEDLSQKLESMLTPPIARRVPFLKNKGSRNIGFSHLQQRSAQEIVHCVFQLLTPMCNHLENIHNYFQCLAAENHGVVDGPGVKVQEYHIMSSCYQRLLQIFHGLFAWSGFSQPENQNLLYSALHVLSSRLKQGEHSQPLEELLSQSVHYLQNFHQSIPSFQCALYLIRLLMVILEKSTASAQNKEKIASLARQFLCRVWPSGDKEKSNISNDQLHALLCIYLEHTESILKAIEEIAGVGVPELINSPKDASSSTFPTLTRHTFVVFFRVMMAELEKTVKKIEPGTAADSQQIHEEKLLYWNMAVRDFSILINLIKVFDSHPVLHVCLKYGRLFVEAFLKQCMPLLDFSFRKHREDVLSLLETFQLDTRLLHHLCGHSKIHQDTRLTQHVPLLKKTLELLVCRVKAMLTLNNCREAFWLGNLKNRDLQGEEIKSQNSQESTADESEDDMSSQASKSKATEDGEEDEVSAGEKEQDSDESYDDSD

What was measured:
Experiment in all cases: co-IP; 293T cells co-transfected with GFP-ATP5α (or its deletion constructs) and Flag-FANCD2; lysate 48 hr after transfection; reverse IP with anti-Flag and anti-GFP antibodies, protein A-sepharose, Western blot
GFP-ATP5α (human) = GFP-ATP5α (human) (UniProt P25705)
[1] = target: GFP-mtATP5α (Δ42-72aa) (human) (UniProt P25705)
[2] = target: GFP-mtATP5α (Δ11-135aa) (human) (UniProt P25705)
Flag-wtFANCD2 = Flag-wtFANCD2 (UniProt Q9BXW9)

| Substance | binding (GFP-ATP5α (human)) | binding [1] | binding [2] | binding (Flag-wtFANCD2) |
| --- | --- | --- | --- | --- |
| Flag-wtFANCD2 (from UniProt Q9BXW9 1-1451) | binds | no binding | no binding |  |
| GFP-ATP5α (from UniProt P25705 44-553) |  |  |  | binds |
| GFP-mtATP5α (Δ11-135aa) (from UniProt P25705 44-553) |  |  |  | no binding |
| GFP-mtATP5α (Δ42-72aa) (from UniProt P25705 44-553) |  |  |  | no binding |
